PubChem BioAssay AID504332 (National Center for Advancing Translational Sciences (NCATS), 2011)
Several values for one entry are separate records, joined by “and”; a condition that tells them apart may be missing. Equal entries are not always repeated. Hit rate of the full screen: of about 350,000 compounds, about 31,000 (8.9%) were called active. This list was built around the results that the source calls inconclusive (neither active nor inactive); the mix of calls is not that of the screen. Calls follow the shape of the dose curve; as a rule, active = well fitted inhibition curve with a large enough effect; inconclusive = small, poorly fitted or top-dose-only effect; inactive = no such curve, though single readings can be large or run the other way. Where the call is inconclusive, the potency comes from a doubtful curve fit.

biological target: Histone-lysine N-methyltransferase EHMT2 (Homo sapiens) (UniProt Q96KQ7); test: qHTS Assay for Inhibitors of Histone Lysine Methyltransferase G9a; settings: G9a H3K9 monomethylation, AlphaScreen, 2 h; activity, negative = inhibition: at 59 µM (top of the series) unless noted; also: nearly all actives have a fitted effect of over 75% in size
Outline: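 Readings reflect AlphaScreen signal from monomethyl-H3K9 antibody detection. HMT at 20 nM; substrate b-H3K9 500 nM; cofactor SAM 20 uM; 2 h RT reaction; compounds tested as titrations in qHTS with 15 min preincubation.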
% is scaled to controls: 0 for no effect and ±100 for the full control effect; potency is read from the fitted curve at half-maximal effect; tags tell the direction and shape of the fitted curve.

Chain of UniProt Q96KQ7 (Q96KQ7 whole entry, looked up): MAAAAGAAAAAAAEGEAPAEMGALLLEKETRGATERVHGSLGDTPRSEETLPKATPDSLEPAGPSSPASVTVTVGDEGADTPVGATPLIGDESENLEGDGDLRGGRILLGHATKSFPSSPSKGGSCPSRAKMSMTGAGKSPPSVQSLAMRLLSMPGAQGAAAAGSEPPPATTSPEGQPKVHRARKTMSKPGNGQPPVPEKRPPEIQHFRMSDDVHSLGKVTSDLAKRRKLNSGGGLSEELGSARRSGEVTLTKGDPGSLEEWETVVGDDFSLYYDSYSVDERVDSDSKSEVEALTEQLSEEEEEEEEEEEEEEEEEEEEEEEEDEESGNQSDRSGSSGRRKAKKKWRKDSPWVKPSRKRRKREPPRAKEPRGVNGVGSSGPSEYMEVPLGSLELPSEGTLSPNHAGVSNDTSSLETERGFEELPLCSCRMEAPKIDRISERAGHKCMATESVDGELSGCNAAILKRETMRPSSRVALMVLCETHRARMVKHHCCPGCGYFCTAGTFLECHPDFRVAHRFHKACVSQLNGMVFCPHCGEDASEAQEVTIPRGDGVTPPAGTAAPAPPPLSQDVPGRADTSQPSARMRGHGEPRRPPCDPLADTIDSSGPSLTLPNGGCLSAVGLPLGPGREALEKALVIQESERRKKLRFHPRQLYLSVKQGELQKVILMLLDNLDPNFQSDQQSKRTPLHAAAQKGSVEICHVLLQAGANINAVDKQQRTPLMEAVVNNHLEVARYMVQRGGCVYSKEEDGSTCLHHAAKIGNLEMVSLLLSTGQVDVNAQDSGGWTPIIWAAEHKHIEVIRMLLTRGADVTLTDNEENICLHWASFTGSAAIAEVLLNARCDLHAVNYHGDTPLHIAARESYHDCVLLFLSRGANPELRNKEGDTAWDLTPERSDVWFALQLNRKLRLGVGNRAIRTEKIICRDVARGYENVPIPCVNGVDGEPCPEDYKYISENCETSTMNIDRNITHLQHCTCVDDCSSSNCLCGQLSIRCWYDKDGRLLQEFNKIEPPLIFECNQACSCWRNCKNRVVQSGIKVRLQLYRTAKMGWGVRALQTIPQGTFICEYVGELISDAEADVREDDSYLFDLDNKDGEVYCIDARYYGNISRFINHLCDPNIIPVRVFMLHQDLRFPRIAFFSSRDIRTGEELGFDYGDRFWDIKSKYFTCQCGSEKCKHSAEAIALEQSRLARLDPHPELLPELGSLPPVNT

Structure (SMILES)	Potency	activity, negative = inhibition
Cc1[nH]n(-c2ccccc2)c(=O)c1S(=O)(=O)c1ccccc1	active: 44.7 µM	–
COc1ccc(NC(=O)CN2C(=O)CC(C)(C)S(=O)(=O)c3ccccc32)cc1	inconclusive: 100 µM [inhibitor, single point]	–
O=C(CSc1ncnc2nc[nH]c12)c1ccccc1	–	inconclusive: -102% [inhibitor]
CC(C)(C)C(=O)Nc1cccc(-c2ncon2)c1	–	inactive: -5.66% [at 102 µM]
CCOC(=O)c1c(C)[nH]c(C)c1C(=O)CSc1nnc(-c2cc(OC)c(OC)c(OC)c2)o1	inconclusive: 89.1 µM [inhibitor, partial curve, poor fit]	–
O=S(=O)(Nc1nc(CN2CCOCC2)nc2sc3c(c12)CCCC3)c1cc(F)ccc1F	–	inactive: 7.08%
COCCNC(=O)Cc1ccc(Br)cc1	–	inactive: 30.9% [at 12.7 µM]
CC(OC(=O)c1cc(S(=O)(=O)N2CCOCC2)ccc1F)C(=O)NCc1ccc2c(c1)OCO2 (configuration not stated)	inconclusive: 79.4 µM [inhibitor, partial curve, poor fit]	–
O=C1NC(=O)C(c2ccccc2[N+](=O)[O-])=C1Nc1ccc(O)c(Cl)c1	active: 3.55 µM and active: 1.5 µM	–
O=C(Nc1ccccc1)c1ccc(F)c(S(=O)(=O)N2CCOCC2)c1	inconclusive: 100 µM [inhibitor, single point]	–
O=C(Nc1nnc(S(=O)(=O)N2CCCCC2)s1)c1ccc(Cl)cc1	inconclusive: 1.78 µM [inhibitor, full curve, poor fit]	–
COc1ccc(CN2C(=O)c3cccnc3C2Nc2cc(Cl)ccc2OC)cc1 (configuration not stated)	–	inconclusive: -114% [inhibitor]
CCc1cccc(C)c1NC(=O)CSc1nnc(Cc2csc(C)n2)o1	inconclusive: 79.4 µM [inhibitor, single point]	–
O=C(c1ccc(COc2ccccc2Br)o1)N1CCCCCC1	–	inactive: -29.9% [at 12.7 µM]
CC(NC(=O)NNC(=O)c1ccncc1)(C(F)(F)F)C(F)(F)F	–	inactive: -25.8% [at 102 µM]
CCC[N+](CC#Cc1ccccc1)(CCC)CC(=O)OCC	inconclusive: 10 µM [inhibitor, partial curve, poor fit]	–
C=CCc1ccc(OCC(O)CN2CCC(Cc3ccccc3)CC2)c(OC)c1 (configuration not stated)	inconclusive: 7.94 µM [inhibitor, partial curve, poor fit]	–
COc1ccc(S(=O)(=O)N2CCCCC2)cc1NC(=O)Cc1cccc(C(F)(F)F)c1	inconclusive: 89.1 µM [inhibitor, single point]	–
COCn1c(=O)c2c(nc(SC3=NCCS3)n2Cc2ccccc2C)n(COC)c1=O	–	inconclusive: -55.5% [inhibitor] [at 0.0925 µM]
O=C(NCC1CCCO1)c1cccc(Oc2ccc([N+](=O)[O-])cc2Cl)c1 (configuration not stated)	inconclusive: 56.2 µM [inhibitor, partial curve, poor fit]	–
CC1(C)C(=O)C2C[C@]3(O)C4=CC(=O)OC(c5ccoc5)[C@]4(C)CCC3[C@](C)(C2=O)C1CC(=O)O (some centres not stated)	–	inconclusive: -74.5% [inhibitor] [at 2.33 µM]
O=C(c1cc(F)ccc1F)C1CCCN(C(=O)CSc2ccccn2)C1 (configuration not stated)	inconclusive: 44.7 µM [inhibitor, partial curve]	–
CCCNC(=O)C(=O)NCc1ccccn1	inconclusive: 70.8 µM [inhibitor, partial curve, poor fit]	–

Structure (SMILES)	Potency	activity, negative = inhibition
COc1ccc2cc(S(=O)(=O)N3CCCC3)ccc2c1	inconclusive: 50.1 µM [inhibitor, partial curve]	–
COc1cccc2oc3ccc(C#CC4(N)CCCCC4)cc3c(=O)c12	inconclusive: 89.1 µM [inhibitor, single point]	–
COc1cccc(-c2ncc3ccccc3c2COC(=O)c2cccs2)c1	–	inactive: 2.88% [at 0.501 µM]
CCOC(=O)CC(NC(=O)c1ccco1)c1ccc(C)cc1 (configuration not stated)	inconclusive: 89.1 µM [inhibitor, partial curve, poor fit]	–
COc1ccc(Cl)cc1N1C(=O)CC(N2CCc3ccccc32)C1=O (configuration not stated)	inconclusive: 89.1 µM [inhibitor, single point]	–
Cc1ccc(CCNC(=O)C2CCCN(S(C)(=O)=O)C2)cc1 (configuration not stated)	inconclusive: 89.1 µM [inhibitor, single point]	–
CN(c1ccccc1)c1nc(N)c([N+](=O)[O-])c(N2CCOCC2)n1	inconclusive: 79.4 µM [inhibitor, partial curve, poor fit]	–
Cc1cccc(C)c1NC(=O)C1CCCN(S(=O)(=O)c2c(C)noc2/C=C/N(C)C)C1 (configuration not stated)	–	inactive: 1.84%
Cc1nc2cnc(N(C)C)nc2n(-c2ccccc2)c1=O	–	inactive: -2.71% [at 0.501 µM]
Cc1ccc2c(c1)-c1c(cnn1CC(=O)Nc1ccccc1N1CCN(C)CC1)CO2	inconclusive: 70.8 µM [inhibitor, single point]	–
COc1ccc(NC(=O)c2sc(SCc3ccccc3)nc2N)cc1	–	inconclusive: -94.9% [inhibitor]
COc1cc2c(cc1OC)C(c1ccco1)CC(=O)N2 (configuration not stated)	inconclusive: 39.8 µM [inhibitor, single point]	–
COc1ccc(N(Cc2ccccc2)C(=O)c2ccccc2[N+](=O)[O-])cc1	inconclusive: 1 µM [inhibitor, partial curve, poor fit]	–
N#Cc1c(NC(=O)C2CC(c3c(F)cccc3Cl)=NO2)sc2c1CCC2 (configuration not stated)	inconclusive: 70.8 µM [inhibitor, single point]	–
Cc1cc(NC(=O)CCCn2ccc([N+](=O)[O-])n2)n(Cc2ccc(F)cc2)n1	inconclusive: 50.1 µM [inhibitor, partial curve]	–
O=C(NC(=S)N1CCc2ccccc21)C1CCC1	inconclusive: 50.1 µM [inhibitor, partial curve]	–
CC(NC(=O)c1cc2ccccc2o1)C(=O)O (configuration not stated)	inconclusive: 79.4 µM [inhibitor, single point]	–
CS(=O)(=O)N1N=C(c2ccccc2)CC1c1ccc2c(c1)OCO2 (configuration not stated)	inconclusive: 14.1 µM [inhibitor, partial curve, poor fit]	–
CCOC(=O)c1ccc(N2C(=O)CC(Sc3nc(O)c(CC)c(=O)[nH]3)C2=O)cc1 (configuration not stated)	–	inconclusive: -102% [inhibitor]
NC(=O)C1CCN(CC(=O)Nc2ccccc2Sc2ccc(Cl)cc2)CC1	–	inactive: 16%
COc1ccccc1CN1CCN(C(c2ccccc2)c2ccccc2)CC1	active: 10 µM	–
COc1ccccc1NS(=O)(=O)c1cc(NC(=O)c2ccc3ccccc3n2)ccc1Cl	inconclusive: 1.41 µM [inhibitor, full curve]	–
Cc1nc(SCC(=O)NCC2CCCO2)c2cc(-c3ccccc3)sc2n1 (configuration not stated)	inconclusive: 1.41 µM [inhibitor, single point]	–

Structure (SMILES)	Potency	activity, negative = inhibition
Cc1c(C(=O)Nc2ccc(Cl)cc2)c2ccccn2c1C(=O)c1ccc([N+](=O)[O-])cc1	inconclusive: 79.4 µM [inhibitor, single point]	–
O=C(CC1C(=O)NCCN1C(=S)Nc1ccccc1)Nc1ccc(F)cc1 (configuration not stated)	inconclusive: 39.8 µM [inhibitor, partial curve]	–
CCOc1cc2c(cc1OCC)C(C(=O)O)C(c1cc(Br)c(O)c(OC)c1)N(C)C2=O (configuration not stated)	inconclusive: 79.4 µM [inhibitor, single point]	–
CCCc1nnc(NC(=O)CS(=O)(=O)c2ccc(C)cc2)s1	–	inactive: -8.22% [at 102 µM]
COc1ccccc1NC(=O)CN1CCN(CC(=O)Nc2ccc(OCc3ccccc3)cc2)CC1	active: 35.5 µM	–
Cc1cccn2c(=O)c(/C=C(\C#N)C(=O)NCc3ccco3)c(N3CCCC(C)C3)nc12 (configuration not stated)	inconclusive: 39.8 µM [inhibitor, single point]	–
CCOC(=O)C(=O)C1=C(N2CCOCC2)/C(=C\c2cccc([N+](=O)[O-])c2)CC1	inconclusive: 28.2 µM [inhibitor, single point]	–
O=C(Nc1ccc(-c2nc3ccc(NC(=O)c4cccs4)cc3[nH]2)cc1)c1cccs1	inconclusive: 3.16 µM [inhibitor, single point]	–
COc1ccc(OC)c(NC(=O)c2cc(S(=O)(=O)NCc3ccco3)ccc2F)c1	inconclusive: 50.1 µM [inhibitor, partial curve]	–
COC(=O)c1ccc(NC(=O)CSc2ccc(-c3cccs3)nn2)cc1	–	inactive: -1.01%
O=C(Cc1ccccc1)NC(C(=O)O)C(O)c1ccc([N+](=O)[O-])cc1 (configuration not stated)	–	inactive: -28.7% [at 102 µM]
N#Cc1cccc(NC(=O)N2CC[C@@]3(CCCNC3)C2)c1	–	inactive: -14.1% [at 12.7 µM]
Cc1ccc(-c2noc(-c3cccnc3NCc3ccc(Cl)cc3)n2)cc1	inconclusive: 17.8 µM [inhibitor, partial curve]	–
CC1(C)Cc2c(c(N3CCOCC3)nc3sc(C(=O)Nc4cccc(Cl)c4)c(N)c23)CO1	active: 79.4 µM	–
CC(=O)Nc1sc(N/N=C/c2ccc(O)cc2)nc1-c1ccc(C)cc1	active: 12.6 µM	–
CCOC(=O)c1cc(-c2ccc(C)cc2)n(CCC(=O)NCc2ccccc2)c1C	–	inactive: 1.91%
Clc1ccc(CCNc2ncnc3nc[nH]c23)cc1	inconclusive: 39.8 µM [inhibitor, single point]	–
Cc1cc(N(C)N)nc(NC(=O)NS(=O)(=O)c2ccccc2Cl)n1	–	inactive: 18.1% [at 102 µM]
CN(CC(=O)O)S(=O)(=O)c1ccc2c(c1)n(C)c(=O)c(=O)n2C	inconclusive: 89.1 µM [inhibitor, single point]	–
CCn1cnc2cc([N+](=O)[O-])ccc21	–	inactive: -21.2% [at 102 µM]
C=CC(=O)NCC1OCCc2ccccc21 (configuration not stated)	–	inactive: 15.5% [at 12.7 µM]
